# Reference: the supplement of paper PMC8728848
# The other results are listed elsewhere or left out.
# B1: Gal 2 (Homo sapiens), P05162 (protein)
# chain: MTGELEVKNMDMKPGSTLKITGSIADGTDGFVINLGQGTDKLNLHFNPRFSESTIVCNSLDGSNWGQEQREDHLCFSPGSEVKFTVTFESDKFKVKLPDGHELTFPNRLGHSHLSYLSVRGGFNMSSFKLKE
# How the values were obtained:
# Experiment in all cases: glycan array binding signal (z-score within array); higher = stronger binding
# Settings in all cases: glycan notation: IUPAC condensed, linker removed
# [1] = molecular target: GlcNAc(b1-3)Gal(b1-4)GlcNAc(b1-6)[Gal(b1-3)]GalNAc
# Method in brief: (§1)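 Negative Z-scores can be read as non-binding. The Z-score is calculated within each array and then averaged across arrays of one protein sequence at different concentrations or buffers and across linkers. Arrays, 3228 in all, were curated from the Consortium for Functional Glycomics database and kept only where the protein sequence was available.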
# [2] = molecular target: GlcNAc(b1-3)Gal(b1-4)GlcNAc(b1-6)[GlcNAc(b1-3)Gal(b1-3)]GalNAc
# Method in brief: as §1
# [3] = molecular target: GlcNAc(b1-3)Gal(b1-4)GlcNAc(b1-6)[GlcNAc(b1-3)]Gal(b1-4)GlcNAc
# Method in brief: as §1
# GlcNAc(b1-3)GalNAc = molecular target: GlcNAc(b1-3)GalNAc
# Method in brief: as §1
# GlcNAc(b1-3)Man = molecular target: GlcNAc(b1-3)Man
# Method in brief: as §1
# [4] = molecular target: GlcNAc(b1-3)[GlcNAc(b1-4)][GlcNAc(b1-6)]GlcNAc
# Method in brief: as §1
# [5] = molecular target: GlcNAc(b1-3)[GlcNAc(b1-6)]Gal(b1-4)GlcNAc
# Method in brief: as §1
# [6] = molecular target: GlcNAc(b1-3)[GlcNAc(b1-6)]GalNAc
# Method in brief: as §1
# [7] = molecular target: GlcNAc(b1-3)[GlcNAc(b1-6)]GlcNAc
# Method in brief: as §1
# [8] = molecular target: GlcNAc(b1-3)[GlcNAc(b1-6)]GlcNAc(b1-4)GlcNAc
# Method in brief: as §1
# [9] = molecular target: GlcNAc(b1-4)Gal(b1-4)GlcNAc
# Method in brief: as §1
# GlcNAc(b1-4)GlcNAc = molecular target: GlcNAc(b1-4)GlcNAc
# Method in brief: as §1
# [10] = molecular target: GlcNAc(b1-4)GlcNAc(b1-4)GlcNAc
# Method in brief: as §1
# [11] = molecular target: GlcNAc(b1-4)GlcNAc(b1-4)GlcNAc(b1-4)GlcNAc(b1-4)GlcNAc
# Method in brief: as §1
# [12] = molecular target: GlcNAc(b1-4)GlcNAc(b1-4)GlcNAc(b1-4)GlcNAc(b1-4)GlcNAc(b1-4)GlcNAc
# Method in brief: as §1
# [13] = molecular target: GlcNAc(b1-4)[GlcNAc(b1-6)]GalNAc
# Method in brief: as §1
# [14] = molecular target: GlcNAc(b1-6)Gal(b1-4)GlcNAc
# Method in brief: as §1
# GlcNAc(b1-6)GalNAc = molecular target: GlcNAc(b1-6)GalNAc
# Method in brief: as §1
# GlcNAc3Prop(b1-4)GlcNAc = molecular target: GlcNAc3Prop(b1-4)GlcNAc
# Method in brief: as §1
# [15] = molecular target: GlcNAc6S(b1-3)Gal(b1-4)GlcNAc
# Method in brief: as §1
# Kdn(a2-3)Gal(b1-3)GalNAc = molecular target: Kdn(a2-3)Gal(b1-3)GalNAc
# Method in brief: as §1
# Kdn(a2-3)Gal(b1-3)GlcNAc = molecular target: Kdn(a2-3)Gal(b1-3)GlcNAc
# Method in brief: as §1
# Kdn(a2-3)Gal(b1-4)Glc = molecular target: Kdn(a2-3)Gal(b1-4)Glc
# Method in brief: as §1
# Kdn(a2-3)Gal(b1-4)GlcNAc = molecular target: Kdn(a2-3)Gal(b1-4)GlcNAc
# Method in brief: as §1
# [16] = molecular target: Kdn(a2-3)Gal(b1-4)[Fuc(a1-3)]GlcNAc
# Method in brief: as §1
# Kdn(a2-6)Gal(b1-4)GlcNAc = molecular target: Kdn(a2-6)Gal(b1-4)GlcNAc
# Method in brief: as §1
# [17] = molecular target: Man(a1-2)Man(a1-2)Man(a1-3)Man
# Method in brief: as §1
# [18] = molecular target: Man(a1-2)Man(a1-2)Man(a1-3)[Man(a1-2)Man(a1-3)[Man(a1-2)Man(a1-6)]Man(a1-6)]Man(b1-4)GlcNAc(b1-4)GlcNAc
# Method in brief: as §1
# [19] = molecular target: Man(a1-2)Man(a1-2)Man(a1-3)[Man(a1-2)Man(a1-6)[Man(a1-3)]Man(a1-6)]Man(b1-4)GlcNAc(b1-4)GlcNAc
# Method in brief: as §1
# [20] = molecular target: Man(a1-2)Man(a1-2)Man(a1-6)[Man(a1-3)]Man
# Method in brief: as §1
# Man(a1-2)Man(a1-3)Man = molecular target: Man(a1-2)Man(a1-3)Man
# Method in brief: as §1
# [21] = molecular target: Man(a1-2)Man(a1-3)[Man(a1-2)Man(a1-6)]Man
# Method in brief: as §1
# [22] = molecular target: Man(a1-2)Man(a1-3)[Man(a1-2)Man(a1-6)]Man(a1-6)[Man(a1-2)Man(a1-2)Man(a1-3)]Man
# Method in brief: as §1
# [23] = molecular target: Man(a1-2)Man(a1-3)[Man(a1-2)Man(a1-6)]Man(a1-6)[Man(a1-2)Man(a1-2)Man(a1-3)]Man(b1-4)GlcNAc(b1-4)GlcNAc
# Method in brief: as §1
# [24] = molecular target: Man(a1-2)Man(a1-3)[Man(a1-3)[Man(a1-6)]Man(a1-6)]Man(b1-4)GlcNAc(b1-4)GlcNAc
# Method in brief: as §1
# [25] = molecular target: Man(a1-2)Man(a1-3)[Man(a1-6)]Man(a1-6)[Man(a1-2)Man(a1-3)]Man(b1-4)GlcNAc(b1-4)GlcNAc
# Method in brief: as §1
# [26] = molecular target: Man(a1-2)Man(a1-6)[Man(a1-3)]Man(a1-6)[Man(a1-2)Man(a1-2)Man(a1-3)]Man
# Method in brief: as §1
# [27] = molecular target: Man(a1-2)Man(a1-6)[Man(a1-3)]Man(a1-6)[Man(a1-2)Man(a1-2)Man(a1-3)]Man(b1-4)GlcNAc(b1-4)GlcNAc
# Method in brief: as §1
# Man(a1-3)[Man(a1-6)]Man = molecular target: Man(a1-3)[Man(a1-6)]Man
# Method in brief: as §1
# [28] = molecular target: Man(a1-3)[Man(a1-6)]Man(a1-6)[Man(a1-2)Man(a1-3)]Man(b1-4)GlcNAc(b1-4)GlcNAc
# Method in brief: as §1
# [29] = molecular target: Man(a1-3)[Man(a1-6)]Man(a1-6)[Man(a1-3)]Man
# Method in brief: as §1
# [30] = molecular target: Man(a1-3)[Man(a1-6)]Man(a1-6)[Man(a1-3)]Man(b1-4)GlcNAc(b1-4)GlcNAc
# Method in brief: as §1
# [31] = molecular target: Man(a1-3)[Man(a1-6)]Man(b1-4)GlcNAc(b1-4)GlcNAc
# Method in brief: as §1
# [32] = molecular target: Man(a1-3)[Man(a1-6)]Man(b1-4)GlcNAc(b1-4)[Fuc(a1-6)]GlcNAc
# Method in brief: as §1
# Man(a1-6)Man = molecular target: Man(a1-6)Man
# Method in brief: as §1
binder,measurement,setting,value
B1,glycan array binding signal (z-score),[1],-0.123
same,glycan array binding signal (z-score),[2],-0.224
same,glycan array binding signal (z-score),[3],-0.245
same,glycan array binding signal (z-score),GlcNAc(b1-3)GalNAc,-0.196
same,glycan array binding signal (z-score),GlcNAc(b1-3)Man,-0.231
same,glycan array binding signal (z-score),[4],-0.237
same,glycan array binding signal (z-score),[5],-0.247
same,glycan array binding signal (z-score),[6],-0.219
same,glycan array binding signal (z-score),[7],-0.429
same,glycan array binding signal (z-score),[8],-0.396
same,glycan array binding signal (z-score),[9],-0.216
same,glycan array binding signal (z-score),GlcNAc(b1-4)GlcNAc,-0.209
same,glycan array binding signal (z-score),[10],-0.267
same,glycan array binding signal (z-score),[11],-0.269
same,glycan array binding signal (z-score),[12],-0.269
same,glycan array binding signal (z-score),[13],-0.257
same,glycan array binding signal (z-score),[14],-0.272
same,glycan array binding signal (z-score),GlcNAc(b1-6)GalNAc,-0.254
same,glycan array binding signal (z-score),GlcNAc3Prop(b1-4)GlcNAc,-0.249
same,glycan array binding signal (z-score),[15],-0.202
same,glycan array binding signal (z-score),Kdn(a2-3)Gal(b1-3)GalNAc,-0.139
same,glycan array binding signal (z-score),Kdn(a2-3)Gal(b1-3)GlcNAc,-0.263
same,glycan array binding signal (z-score),Kdn(a2-3)Gal(b1-4)Glc,0.019
same,glycan array binding signal (z-score),Kdn(a2-3)Gal(b1-4)GlcNAc,-0.241
same,glycan array binding signal (z-score),[16],-0.182
same,glycan array binding signal (z-score),Kdn(a2-6)Gal(b1-4)GlcNAc,-0.158
same,glycan array binding signal (z-score),[17],-0.27
same,glycan array binding signal (z-score),[18],1.05
same,glycan array binding signal (z-score),[19],-0.402
same,glycan array binding signal (z-score),[20],-0.218
same,glycan array binding signal (z-score),Man(a1-2)Man(a1-3)Man,-0.282
same,glycan array binding signal (z-score),[21],-0.24
same,glycan array binding signal (z-score),[22],-0.224
same,glycan array binding signal (z-score),[23],-0.034
same,glycan array binding signal (z-score),[24],-0.028
same,glycan array binding signal (z-score),[25],-0.268
same,glycan array binding signal (z-score),[26],-0.211
same,glycan array binding signal (z-score),[27],-0.22
same,glycan array binding signal (z-score),Man(a1-3)[Man(a1-6)]Man,-0.234
same,glycan array binding signal (z-score),[28],0.076
same,glycan array binding signal (z-score),[29],-0.221
same,glycan array binding signal (z-score),[30],-0.263
same,glycan array binding signal (z-score),[31],-0.231
same,glycan array binding signal (z-score),[32],-0.147
same,glycan array binding signal (z-score),Man(a1-6)Man,-0.186
